From patent US12551573B2, “Compositions and methods for the targeting of PCSK9” (Scribe Therapeutics Inc., priority 2022, dated 2026)
Like-named read-outs stand apart in the source and are kept apart here.

System: HBEGF locus
Type: cell-based, human
[1] = high-throughput screen of dXR repression of the HBEGF gene, abundance of each domain in the library before vs after diphtheria toxin selection, listed domains met p-value <0.01 and log2(fold change) >2
[2] = fold change in abundance of each repressor domain in the dXR library before vs after diphtheria toxin selection, dXR repression of the HBEGF gene, domains meeting p-value <0.01 and log2(fold change) >2
[3] = high-throughput screen of dXR repression of the HBEGF gene, change in abundance of each domain in the library before and after diphtheria toxin selection

Molecule	Log2 (fold change) [1]	Log2 (fold change) [2]	further results
DOMAIN_26211 (protein, listed as Pelodiscus sinensis) VVELLTFEEVAVYFSKEEWALLDPGQRALYRDVMQENYEAVSWLGFPVSKTDVISWVEREEEFWVPDPRSCEEGVIISNTH	2.6058	–	–
DOMAIN_26660 (protein, listed as Phasianus colchicus) CQEPVSFAQVAVYFSREEWALLDPAQRALYRDVMLETYQCVASLAPLPAPKPVLISQLEGEEDPCISDVRSPEAVPGDLSP	–	3.201	–
DOMAIN_26373 (protein, listed as Pseudonaja textilis) FLPQVTFEDVAIYFSREEWDELSEWQRELYQAVMMENYEAVLSLGKNDFIAQCTWGLREGEKRASGKSEKARNRPVSNLWR	3.3204	–	–
DOMAIN_26439 (protein, listed as Pelodiscus sinensis) SEMRVTFEEVAVYFTKGQGALLDARQKALYRDVMLENYEAVTSLGFPVPKPELIARLERGEEPWVPDLQAGEEREILRGTR	–	3.2468	–
DOMAIN_26780 (protein, Meleagris gallopavo) EEPVSFAEVAVYFSREEWALLDPAQRALYRDVMLETYQCVASMESLLPAPKPIVISLLEGGEDLWIPDMQSPEDVAGDLRP	–	3.1696	–
DOMAIN_26423 (protein, listed as Pelodiscus sinensis) AQVPVTFEEVAVYFTAGQGALLGPNQRALYRDVMQENYETVASLGFSIPKPDLITQLERGEEPWVPDLQPSKEMEFLRGTC	–	3.0169	–
DOMAIN_26800 (protein, Meleagris gallopavo) SQEPVSFADVAVYFSREEWALLDPAQRVLYRDVMLETYECIASLACPAPKPAVISMLEGEEDPWIPEDMAGDLGPGEPVRE	–	3.8197	–
DOMAIN_26469 (protein, listed as Pelodiscus sinensis) VTFEEVAVYFSAEEWALLGPAQRALYREVMRENYEAVTSLAWAGLPISKPDLISCMERGEEPWVAHLQSQRRRELPRGRNS	–	3.021	–
DOMAIN_26416 (protein, listed as Pelodiscus sinensis) VVEPVSFEEVAVYFSEEEWALLDPGQRALYWAVMQENYEAVSWLGFSIPKPDLITQLDRGEEPWVPDLQPSKKLEILRGTR	3.6321	–	–
DOMAIN_26414 (protein, listed as Pelodiscus sinensis) FQGPVTFDEVAVYFTKEEWALLDPAQRALYRDVMQENYETVTSLGLPVSRPDVISQMEQGEEPWASALQGSEDRLILRGIC	2.9544	–	–
DOMAIN_987 (protein, Pan troglodytes) MDTVVFEDVVVDFTPEEWALLNPAQRKLYRDVMLETFKHLASVDNEAQLKASGSISQQDTSGEKLSLKQKIEKFTRKNIWA	–	–	Log2 (fold change) [3]: 2.6881
DOMAIN_26233 (protein, listed as Colinus virginianus) SQEPVSFEEVAVYFSREEWALLDPAQRALYRDVMLETYECVASLAPLPAPKPMVISLLEEGEEPWIPDVGSPEAVAGDVSP	3.6739	–	–
DOMAIN_26795 (protein, Meleagris gallopavo) SQEPVSFAEVAVYFSREEWALLDPAQRALYRDVMLETYQCVASLAPLPAPKPMLISLLEGGEEPWIPDVRSPEAVPGDLSP	–	3.3538	–
DOMAIN_26415 (protein, listed as Pelodiscus sinensis) FLMPVTFEEVAVYFTPGQGALLDPAQRALYRDVMQENYETVASLGFSIPKPDLIAQLEQGEEPWVPDLQPSKEMVILRGIC	2.5032	–	–
DOMAIN_26265 (protein, listed as Geotrypetes seraphini) KLKPVKFQDVAVYFSEEEWQLLENQQKELYRSVMKENYENLTSLGFTTTKPNILKRMEQGRPLWVSTRRKVIKHSFREGEP	2.5922	–	–
DOMAIN_26577 (protein, listed as Geotrypetes seraphini) QQVPVTFEDVAVSFSQEEWKYLDEAQKNLYWEVMKENYETLISLDSEVHQEEEREKNQEEYPMLWGLISRQSRKNHEKVYW	–	2.4722	–
DOMAIN_26417 (protein, listed as Pelodiscus sinensis) AQVPVTFEEVAVYFTQGQGALLGPAQRALYRDVMRENYEMVTSLGFPVPKPDLVARLERGEEPWVSDCLASEEGGTRRGRG	4.1057	–	–
DOMAIN_26353 (protein, listed as Pelodiscus sinensis) VEPVSFEEVAVYFSEEEWALLDPGQRALYWDVMQENYEAVSWLVRGRGVSKAHVISWVERGEELWIPDRQGCEEGESISDI	3.5785	–	–
DOMAIN_26634 (protein, listed as Gopherus agassizii) FQGPVTFEEVAVYFTSEEWALLDPTQRALYWDVMQENYENVTSLGFPVSKPHIISQLEQGAEPWVPDLQGSEEILSKHQRI	–	2.8182	–
DOMAIN_26679 (protein, listed as Paroedura picta) MLSPVTFEDVAVYFTEGQGALLDPNQRALYREVMMENYENMASLGFLFIKPALISQLEQGEELWAPESQGLDAAEISDTSD	–	2.6033	–
DOMAIN_26236 (protein, listed as Pelodiscus sinensis) VSEPVTFEEVALYFSEEEWALLDAGQRALYRDVMKENYEAVRWLDNGRLNENHDKSLQNEGPEQMAPCGMMLGISEGHVSQ	2.7094	–	–
DOMAIN_26783 (protein, Meleagris gallopavo) EPVSFAEVAVYFSREEWALLDPAQRALYRDVMLETYQCVASLVTETPVPAPKPVLISLLEGRKEPWIPDMRSPEAMPGDLS	–	3.2848	–
DOMAIN_999 (protein, Pan troglodytes) CSHRSCREDPGTSESREMDPVAFKDVAVNFTQEEWALLDISQRKLYREVMLETFRNLTSIGKKWKDQNIEFEYQNPRRNFR	–	–	Log2 (fold change) [3]: 2.7361
DOMAIN_26335 (protein, listed as Colinus virginianus) EPVSFEEVAVYFSREEWALLDPAQRALYRDVMLETYECVASLAPLPGPKPMVISLLEEGEEPWIPDVGSPEAVAGDVSPGE	4.0965	–	–
DOMAIN_26430 (protein, listed as Pelodiscus sinensis) VAGPVTFEEVAVYFSEEEWALLDPGQRALYRDVMQENYEAVSWLGFPVSKPGETSWLERAGKLQEWESRSHANTARPRGNQ	–	2.6946	–
DOMAIN_26636 (protein, listed as Gopherus agassizii) FPMPVTFEEVAVYFTQGQGALLDPAQRALYRDVMQENYKMVTSLAGFPIPKPDLIAQLERGEEPWVPDLQADEERESPRGT	–	2.6934	–
DOMAIN_26340 (protein, listed as Pelodiscus sinensis) AQGLVPFEEVAVYFTRTEWALLDPAQRALYRAVMQENYENVTSLGFAVSKPDVISQLERGEEPWVPELQGSEHREILGGTG	3.1704	–	–
